Results from the RNAGym collection of RNA variant scans (doi:10.1093/nar/gkz1192).
Read counts are not given, so values of variants with three or more changes are uncertain.

B1: CPEB3 Ribozyme (parent)
chain: UAACAGGGGGCCACAGCAGAAGCGUUCACGUCGCAGCCCCUGUCAGAUUCUGGUGAAUCUGCGAAUUCUGCUGUAUAUCUC

Variants of: B1
Experiment: self-cleavage, relative activity (ratio to wild type); higher = more cleavage; in vitro, sequencing
In short: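 Barcoded CPEB3 ribozyme mutants, produced by rounds of error-prone PCR, self-cleaved while being transcribed with T7 RNA polymerase for 5 hours at 37°C and during a subsequent 15 min DNase I step before EDTA was added. Sequencing of template-switched cDNA on Illumina gave cleaved and total reads, and DNA sequencing assigned barcodes to variants. Each variant's relative activity is its cleaved/total read fraction divided by the unmutated ribozyme's fraction, averaged across three batches. A variant needed a minimum of 5 reads.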
A13G A21G U60C gave a self-cleavage of 0.17. Variant A13G A20G U31C U67C has a self-cleavage of 0.23. For A13G A65G U80C, the self-cleavage was 0.27. A13G C40A U51G A57G gave a self-cleavage of 0.17. With A13G A15G G61A the self-cleavage was 0.1. C12U A64G A65G gave a self-cleavage of 0.21. With A13G A21G U31C A57G the self-cleavage was 0.14. A13G U26C A45U U69A G70A gave a self-cleavage of 0.2. A13G C29U U54C U78C gave a self-cleavage of 0.2. In the case of A13G U26A A28C U41A A45G, the self-cleavage is reported as 0.08. A13G A21G U25C A65G U72A U80C showed a self-cleavage of 0.09. For C12U A56G U58C U72A, the self-cleavage was 0.43. Variant A13G U31C G36C G53A A65U has a self-cleavage of 0.09. A13G A15G A18G A35G C39G A57U gave a self-cleavage of 0.42. A13G U26C U58C showed a self-cleavage of 0.17. For A13G U26C U41A U54C U78A, the self-cleavage was 0. With A13G A35G G42A C62U A64G A77G the self-cleavage was 0.08. With A13G A18G A21G the self-cleavage was 0.34. In the case of A13G U43A U80C, the self-cleavage is reported as 1.12. A13G A21G G61A U74C showed a self-cleavage of 0.47. With A13G U26C A28U the self-cleavage was 0.37. A13G A57G U80A gave a self-cleavage of 1.03. A13G A57G U80C gave a self-cleavage of 0.97. For A13G C27A C29A U74A, the self-cleavage was 0.34. A13G U26C U41G G70A U80C gave a self-cleavage of 0.14. A13G G36A U58A showed a self-cleavage of 0.17. Variant A13G A21U G53U has a self-cleavage of 0.39. Variant A13G A35G C37U has a self-cleavage of 1.04. Work on A13G U31A U67C yielded a self-cleavage of 0.12. Variant A13G G22A U48C U60G has a self-cleavage of 0.08. With A13G U31A A45U A57G the self-cleavage was 0.22. In the case of A13G A45C U60C C68A U69C U78C C81A, the self-cleavage is reported as 0.04. Work on A13G A35U U67C U74C yielded a self-cleavage of 0.08. Work on A13G U43C A65G yielded a self-cleavage of 0.2. A13G G33C A45U U60G C81U showed a self-cleavage of 0.1. Variant A13C U41A U51A U78A has a self-cleavage of 0.17. With A13G U25C U69C the self-cleavage was 0.17. In the case of A13G A28G U51A G55C A56G, the self-cleavage is reported as 0.24. Variant A13C A35G G46A A64G has a self-cleavage of 0.67. Variant A13C A18U A28U U51A U69C A77G has a self-cleavage of 0.27. Work on A13G A15G A45U U78C yielded a self-cleavage of 0.43. A13C A20G U76G gave a self-cleavage of 0.89. With A13C A18U U76C the self-cleavage was 0.06. Variant C12U U26C U31A A47C U80C has a self-cleavage of 0.13. A13G U25A U60C U72C U76A U78A showed a self-cleavage of 0.08. With A13G A28U U51C A56C C59A the self-cleavage was 0.14. Work on A13G U31C U78C yielded a self-cleavage of 0.52. For A13G U25C U43C, the self-cleavage was 0.23. A13G U25C A28G U66C showed a self-cleavage of 0.28. A13G A20G U41C G55U U69A gave a self-cleavage of 0.23. In the case of C12U G30A A57G, the self-cleavage is reported as 0.44. Work on A13G A20G U26C U69A yielded a self-cleavage of 0.35. A13G U25C U41C U51G showed a self-cleavage of 0.32. A13G G24U U26A A35U C40U showed a self-cleavage of 0.16. A13G U43C G53A U60C U67C A75G gave a self-cleavage of 0.08. With A13G C40A U74C the self-cleavage was 0.07. For A13G A21G U31A U49C A64C U80C, the self-cleavage was 0.03. In the case of A13G G16U A20G U54C U67C, the self-cleavage is reported as 0.1. C12U A20G U31A U49C U54A showed a self-cleavage of 0.35. For A13G A28C U54C U60A U66C A75G, the self-cleavage was 0.07. For C12U A21U A64U, the self-cleavage was 0.48. A13G A28G G33A C38G C44U U72A showed a self-cleavage of 0.03. A13G A15G U25C A45U U48A U80C gave a self-cleavage of 0.22. A13G U49C U67A G70A showed a self-cleavage of 0.12. For A13G U43C A45C U72A, the self-cleavage was 0.14. With A13G U26C U43C U49A A57G the self-cleavage was 0.05. Work on A13G G55A U66C yielded a self-cleavage of 0.14. In the case of A13G U31C U54G U69C, the self-cleavage is reported as 0.07. For A13G C29A G70U, the self-cleavage was 0.11. Work on A13G G24A U43C yielded a self-cleavage of 0.15. Variant A13G U25C A56G A64G has a self-cleavage of 0.29. Work on A13G A21G U54C G63A U72C U80G yielded a self-cleavage of 0.32. A13G A28G C32U U49C A65G gave a self-cleavage of 0.11. Variant A13G G22C U49C U51A has a self-cleavage of 0.05. Variant A13G U25A C32A U43A U49C has a self-cleavage of 0.05. A13G A15U U25C U26A U67C gave a self-cleavage of 0.46. Variant A13C A45U A47U has a self-cleavage of 0.17. Work on A13G A15G C38U yielded a self-cleavage of 0.22. A13G U26A U41C U67C showed a self-cleavage of 0.09. Variant A13G G24A U26C U54C U74C has a self-cleavage of 0.1. With A13G U31A U43C U58C the self-cleavage was 0.08. A13G U26A A35U U51A A57U A64U U67C showed a self-cleavage of 0.08. Work on C12U A20G U43G G73U yielded a self-cleavage of 0.07. For A13G G73U U76C U78C, the self-cleavage was 1.16.
